The whole screen tested about 48,000 compounds, of which about 450 (0.94%) were called active. Another 19% or so got no clear call; they are omitted. The call rests on the fitted dose curve; in most records, active means well fitted inhibition curve with a large enough effect; inconclusive means small, poorly fitted or top-dose-only effect; inactive means no such curve, though single readings can be large or run the other way. The list shows a part of the results.
experiment: Primary qHTS for Identification of Small Molecule Inhibitors of Huntingtin Promoter Activity; conditions: HEK293 HTT promoter firefly luciferase reporter (activity 0% = vehicle and -100% = no light), 24 h; series mostly up to 57.5 µM; activity change, negative = inhibition: at the top concentration; further: nearly all actives have a fitted effect of over 50% in size
Summary of the method: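 HEK293 cells carrying firefly luciferase reporters were seeded at 2,500 per well in Opti-MEM and cultured for 24 h. They were then treated with compounds at up to 57.5 uM final for 24 h at 37 degrees C before Dual-Glo luminescence readout.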
Potency means the concentration at half of the fitted maximal effect.

Row | SMILES | activity change, negative = inhibition | Potency
1 | O=C(CN1C(=O)C2(SCC(=O)N2c2ccc(F)cc2)c2ccccc21)NCCc1ccccc1 (configuration not stated) | inactive: -10.6% | 
2 | Cc1cc(C)cc(Nc2cc(C(=O)NCc3ccccc3)c3ccccc3n2)c1 | inactive: -8.05% | 
3 | Cc1cc(C)c(NC(=O)C(C)n2nnc3sc(-c4ccccc4)cc3c2=O)c(C)c1 (configuration not stated) | inactive: 0.188% | 
4 | CCOc1cc(CNCCSc2nnnn2-c2ccccc2)ccc1OC | inactive: -28.9% | 
5 | CSc1ccc(CCNC(=O)c2cc3c(-c4ccccc4F)nn(C)c3s2)cc1 | inactive: -25.8% | 
6 | Cc1cccc(NC(=O)Cn2c(=O)n(CCC(=O)N3CCc4ccccc4C3)c(=O)c3ccccc32)c1 | inactive: -14.4% | 
7 | CCCCc1oc2ccccc2c1C(=O)c1cc(I)c(OCCN(CC)CC)c(I)c1 | inactive: -17.6% | 
8 | Cc1cc(C)cc(Nc2nc3c(S(=O)(=O)c4cccc(Cl)c4)nnn3c3ccsc23)c1 | inactive: -4.56% | 
9 | CC(=O)Nc1ccc(C(=O)CSc2nnc3ccc4ccccc4n23)cc1 | inactive: -3.24% | 
10 | CCOC(=O)c1cc2c(=O)n3ccccc3nc2n(C)c1=NC(=O)c1cc2ccccc2o1 | inactive: -17.7% | 
11 | CCOc1ccc(NC(=O)NCCN2CCN(c3ccccc3F)CC2)cc1 | inactive: -13.3% | 
12 | Cc1ccc2c(c1)c1c(c(=O)n(-c3ccccc3C)c(=O)n1CC(=O)NCC1CCCO1)n2C (configuration not stated) | inactive: -8.72% | 
13 | Cc1cc(=O)n2nc(N3CCC(C(=O)Nc4ccc(Br)cc4F)CC3)sc2n1 | inactive: -12.8% | 
14 | Cc1ccc(C)c(NC(=O)CCCN2C(=O)C(c3ccccc3)Oc3cccnc32)c1 (configuration not stated) | inactive: -28.8% | 
15 | CC(C)(C)c1nnc(NS(=O)(=O)c2ccccc2)s1 | inactive: -6.15% | 
16 | OC[C@H]1OC(O)C[C@@H](O)[C@H]1O (some centres not stated) | inactive: 3.16% | 
17 | Nc1c(C(=O)Nc2ccc(Br)cc2)sc2nc(-c3ccncc3)ccc12 | inactive: -2.72% | 
18 | O=C(CNC(=O)c1ccc(Cl)cc1)OCc1cc(=O)n2nc(C3CCCCC3)sc2n1 | inactive: -17.1% | 
19 | COc1ccc(S(=O)(=O)N(CC(=O)Nc2cccnc2)c2ccc(C)cc2)cc1OC | inactive: 2.38% | 
20 | COc1cc2c(=O)n(CCC(=O)NCC3CCCO3)c(=O)n(CC(=O)Nc3ccc(F)cc3)c2cc1OC (configuration not stated) | inactive: -19.2% | 
21 | Cc1ccc(O)c(NC(=O)CCS(=O)(=O)c2nc(-c3ccc4c(c3)OCO4)cc(C(F)(F)F)n2)c1 | inactive: 22.7% | 
22 | O=c1[nH]c(=O)n([C@H]2C[C@H](O)[C@@H](CO)O2)cc1I | inactive: 14.8% | 
23 | Cc1ccc(-n2nnc(-c3nsc(NC(=O)c4ccc(C)c(C)c4)n3)c2C)cc1 | inactive: -29.6% | 
24 | CCc1ccc(CNC(=O)CCn2c(=O)c3cccn3c3ccc(F)cc32)cc1 | inactive: 2.72% | 
25 | CCOc1ccccc1CNC(=O)c1cc(-c2ccc(C)c(C)c2)nc2ccccc12 | inactive: -11.7% | 

Row | SMILES | activity change, negative = inhibition | Potency
26 | CCOc1ccccc1NC(=O)COc1ccc(S(=O)(=O)NC2CCCCC2)cc1 | inactive: -19.9% | 
27 | O=C(Nc1ccc(F)c(F)c1)C1CCCN1S(=O)(=O)c1cccc2nsnc12 (configuration not stated) | inactive: -25.8% | 
28 | CN1CCN(c2ccc3nc(-c4c(N)c5c(F)cccc5[nH]c4=O)[nH]c3c2)CC1 | inactive: -1.92% | 
29 | COc1cccc2sc(N3CCN(C(=O)CCS(=O)(=O)c4ccc(F)cc4)CC3)nc12 |  | active: 22.4 µM
30 | Cc1oc2ncn(C)c(=O)c2c1C(=O)NCCCN(Cc1ccccc1)C(C)C | inactive: 5.04% | 
31 | CCn1c(=O)c2sccc2n2c(CCC(=O)Nc3ccc(OC)c(Cl)c3)nnc12 | inactive: -1.31% | 
32 | Cc1ccc(C(=O)Nc2nc(-c3ccccc3)ns2)cc1 | inactive: 0.665% | 
33 | CC(C)Oc1ccc(CNC(=O)C2CCN(c3nc4ccccc4n(C)c3=O)CC2)cc1 | inactive: 6.92% | 
34 | CCc1ccc(C2NC(=O)c3[nH]nc(-c4cccc(OC)c4)c32)cc1 (configuration not stated) | inactive: -4.25% | 
35 | CS(=O)(=O)N1CCc2cc(C(=O)Nc3cccc(F)c3)ccc21 | inactive: 32.4% | 
36 | COc1ccccc1CC(=O)Nc1ccc2nc(N3CCC(C)CC3)cc(C)c2c1 | inactive: -0.501% | 
37 | Cc1ccc(C)c(Cn2c3ccccc3c3cnn(CC(=O)NC(C)c4ccccc4)c(=O)c32)c1 (configuration not stated) | inactive: 5.86% | 
38 | CCOC(=O)c1ccc(-c2ccc(/C=C(\C#N)C(=O)Nc3ccc(C)cc3OC)o2)cc1 | inactive: -9.73% | 
39 | CCCNC(=O)CN1CCN(c2ncc(NC(=O)c3ccc(Cl)cc3)cc2C(=O)O)CC1 | inactive: -10.9% | 
40 | N[C@@H](COP(=O)(O)O)C(=O)O | inactive: 1.19% [at 25.2 µM] | 
41 | CCCOc1ccccc1C1Oc2nc(SC)nnc2-c2ccccc2N1C(C)=O (configuration not stated) | inactive: -25.6% | 
42 | CCCCN1C(=O)C(O)(c2c(C)[nH]c3ccccc23)c2ccccc21 (configuration not stated) | inactive: -30.5% | 
43 | COCCNC(=O)Cn1ncc2c(C)n(Cc3ccc(C)cc3)c(C)c2c1=O | inactive: -20.1% | 
44 | Cc1ccc(C)c(CNC(=O)c2cnc3sc(N4CCCC4)nn3c2=O)c1 | inactive: -18.7% | 
45 | CCOc1ccc(C(=O)c2cn(Cc3ccc(F)cc3)c3ccc(F)cc3c2=O)cc1 | inactive: -15.8% | 
46 | Cc1ccc(CN(Cc2ccco2)C(=O)c2oc3ccc(C)cc3c2C)cc1 | inactive: -15.7% | 
47 | CSc1ccc(C2c3c(oc4ccccc4c3=O)C(=O)N2CCCN2CCOCC2)cc1 (configuration not stated) | inactive: -10.2% | 
48 | CC(C)(C)C(=O)OC1=CN(Cc2ccccc2)S(=O)(=O)c2ccccc21 | inactive: -14% | 
49 | CCc1ccc(NC(=O)CSc2nc3ncccc3[nH]2)cc1 | inactive: -17.7% | 
50 | Cc1cccc(N(C)C(=S)Oc2ccc3ccccc3c2)c1 | inactive | 

Row | SMILES | activity change, negative = inhibition | Potency
51 | CCOc1ccc(/C=C/C(=O)Nc2sc3c(c2C(=O)OC)CCC3)cc1 | inactive: -15.1% | 
52 | COc1ccc(C)cc1NC(=O)Cn1cc(S(=O)(=O)Cc2ccccc2Cl)c2ccccc21 | inactive: -17.5% | 
53 | CCOc1cc2c(cc1OCC)C(c1c(F)cccc1Cl)CC(=O)N2 (configuration not stated) | inactive: -25.8% | 
54 | CCc1ccccc1NC(=O)c1nc(-c2ccncc2)no1 | inactive: 8.79% | 
55 | Cc1sc2c(c1C)c(=O)n(-c1ccc(Cl)cc1)c(=O)n2Cc1c(F)cccc1Cl | inactive: -13.2% | 
56 | COc1cc(C2C(C(=O)Nc3ccccc3)=C(C)Nc3nc(SCc4ccccc4F)nn32)cc(OC)c1OC (configuration not stated) | inactive: -18.2% | 
57 | CC1CCN(S(=O)(=O)c2cc(C(=O)Nc3ccc(Br)cc3F)n(C)c2)CC1 | inactive: -34.1% | 
58 | Cc1ccc(-c2cc(C(=O)N3CCN(c4ccccc4)CC3)c3ccccc3n2)cc1C | inactive: 14.6% | 
59 | Cc1ccc(Cn2c(CCCNC(=O)C3CCCCC3)nc3ccccc32)cc1 | inactive: -24.3% | 
60 | O=C(Cn1ncc2c(Cl)cccc21)NCc1cccc(Br)c1 | inactive: -4.46% | 
61 | CCN1CCCC1CNC(=O)c1cc(S(N)(=O)=O)ccc1OC (configuration not stated) | inactive: -5.27% | 
62 | Cc1ccc(N2CC(NC(=O)C(=O)c3c[nH]c4ccccc34)CC2=O)cc1 (configuration not stated) | inactive: -26.5% | 
63 | CC(C)CCNC(=O)c1ccc2c(c1)N(Cc1ccccc1F)C(=O)c1ccccc1S2=O (configuration not stated) | inactive: -25.2% | 
64 | COc1ccccc1OCC(=O)NCC1(N(C)C)CCCCC1 | inactive: 73.7% | 
65 | O=C(CSc1nc(=O)n(Cc2cccnc2)c2c1CCC2)Nc1ccc(F)cc1F | inactive: -18.7% | 
66 | N#C/C(=C\c1c(Oc2ccc(Br)cc2)nc2ccccn2c1=O)c1nc2ccccc2s1 | inactive: 11.3% | 
67 | CC(=O)N1CCc2cc(Br)cc(S(=O)(=O)N3CCN(c4cccc(C)c4)C(C)C3)c21 (configuration not stated) | inactive: -0.526% | 
68 | COc1ccc(N2CCN(C(=O)CS(=O)(=O)c3cccc4nsnc34)CC2)cc1 | inactive: -30% | 
69 | CCCCN1CCc2nc(N3CCN(C)CC3)ncc2C1 | inactive: -5.45% | 
70 | COc1ccc(CCN2CCC(CNC(=O)c3cnn(-c4ccccc4)c3C3CCN(C(=O)OC(C)(C)C)CC3)CC2)cc1 | inactive: -12% | 
71 | Cc1nn(C(C)C(=O)NC2CCC(C)CC2)c(=O)c2cc3sccc3n12 (configuration not stated) | inactive: -0.12% | 
72 | COc1ccccc1N1CCN(C(=O)c2cn(C)c3ccc(S(=O)(=O)N4CCOCC4)cc3c2=O)CC1 | inactive: -15.5% [at 11.5 µM] | 
73 | COc1ccc(Cl)cc1NC(=O)c1cc(C)nn1-c1ccccc1 | inactive: -21.4% | 
74 | COc1ccc(OC)c(S(=O)(=O)N2CC=C(c3c(C)n(CC(=O)N4CCCC4)c4ccccc34)CC2)c1 | inactive: 0% | 
75 | O=S(=O)(c1ccc(Cl)cc1)c1nnn2c1nc(N1CCCCC1)c1sccc12 | inactive: -1.57% | 

Row | SMILES | activity change, negative = inhibition | Potency
76 | Fc1ccccc1-n1ncc2c1ncn1nc(Cc3ccccc3)nc21 | inactive: 33.7% | 
77 | Cc1cn(C)c(CC(=O)N2CCN(c3ccccc3F)CC2)c1C(=O)O | inactive: -11.6% | 
78 | COc1ccc(-c2nc3sc(CCNC(=O)c4ccccc4C)c(C)n3n2)cc1 | inactive: -21.8% | 
79 | Cc1ccc2c(c1)-c1c(c(C(=O)N3CCN(c4cc(Cl)ccc4C)CC3)nn1C)CS2 | inactive: -8.93% | 
80 | CC(CNC(=O)CCS(=O)(=O)c1ccc2c(c1)oc(=O)n2C)c1ccccc1 (configuration not stated) | inactive: -4.26% | 
81 | Cc1cccc(NC(=O)N2CCC(CN3CCOCC3)CC2)c1C | inactive: 3.12% | 
82 | Cc1cccn2c(=O)c3cc(C(=O)N(Cc4ccccc4)C(C)C)sc3nc12 | inactive: -3.71% | 
83 | CCCCN(C)CCNC(=O)c1ccc2c(c1)NC(=O)CN2 | inactive: -10.5% | 
84 | Cc1c(C(=O)NCCc2ccc(S(N)(=O)=O)cc2)sc2nc3n(c(=O)c12)CCCC3 | inactive: 6.09% | 
85 | Cc1cccc(Cn2c(C)c(CNC3CCCCC3)c(C(=O)O)c2C)c1 | inactive: -15.2% | 
86 | Cc1cc(Cl)ccc1NC(=O)C1CCN(c2nnc(-n3c(C)ccc3C)s2)CC1 | inactive: -28.1% | 
87 | CCOC(=O)c1ccccc1NC(=O)N1CCOc2ccc(Cl)cc21 | inactive: -27.2% | 
88 | CCc1ccccc1NC(=O)CSc1nc2c(oc3ccccc32)c(=O)n1-c1ccccc1F | inactive: -29.9% | 
89 | COc1ccc(-c2ccc3cc(C(=O)O)ccc3c2)cc1C12CC3CC(CC(C3)C1)C2 | inactive | 
90 | Cc1ccc(NC(=O)C(=O)NCC(c2cccnc2)N2CCN(Cc3ccccc3)CC2)cc1 (configuration not stated) | inactive: -20.3% | 
91 | Cc1cc(C)c(NC(=O)CSc2nc(-c3ccc(F)cc3)nc3c2Cc2c(CO)cnc(C)c2O3)c(C)c1 | inactive: -11.8% | 
92 | CCCCCCCCCCCC(=O)[O][Sn]([CH2]CCC)([CH2]CCC)[O]C(=O)CCCCCCCCCCC | inactive: 11.4% | 
93 | COc1ccc(S(=O)(=O)N(CC(=O)Nc2cccc(C)c2)c2ccc(C)cc2)cc1OC | inactive: -29.5% | 
94 | COc1ccccc1CNC(=O)c1ccc(N2CCCC2)c(NC(=O)NCc2ccc(F)cc2)c1 | inactive: -27% | 
95 | CCCCSCCCNC(=O)C1CCN(Cc2nc(-c3cccc(Br)c3)oc2C)CC1 | inactive: -2.44% | 
96 | O=C(Cn1ncc2c3ccccc3n(Cc3ccccc3F)c2c1=O)N1CCCCC1 | inactive: 12.3% | 
97 | CCOc1ccc(CCNC(=O)c2[nH]c3cc(OC)ccc3c2Sc2ccccc2)cc1OCC | inactive: -29.9% | 
